# Read counts are not given, so values of variants with three or more changes are uncertain.
# B1: CPEB3 Ribozyme (parent)
# chain: UAACAGGGGGCCACAGCAGAAGCGUUCACGUCGCAGCCCCUGUCAGAUUCUGGUGAAUCUGCGAAUUCUGCUGUAUAUCUC
# Variants of: B1
# Experiment: self-cleavage, relative activity (ratio to wild type); higher = more cleavage; in vitro, sequencing
# Method in brief: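 CPEB3 self-cleaving ribozyme mutant libraries were made by rounds of error-prone PCR, barcoded, and transcribed in vitro with T7 RNA polymerase for 5 hours at 37°C. Cleavage occurred during transcription and a 15 min DNase I step before EDTA stop. RNAs were reverse transcribed with template switching and Illumina-sequenced, with DNA sequencing mapping barcodes to variants. Relative activity is the variant's cleaved/total read fraction divided by wild type's (minimum 5 reads), averaged across three batches.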
row,Variant,self-cleavage
1,U31C U51C G63C,0.48
2,U31C U72C C79U,0.38
3,C32U U43A U51C A56U,0.1
4,A35C U51A U60C U72C,0.18
5,G33A A64G U78C,0.12
6,C34U U43A U48C,0.04
7,C32U A35C U41A A45C,0.09
8,C32U U58A U60C C79G,0.06
9,G33A U49C U60A C71U,0.06
10,C34U U54C A57G,0.18
11,G33A U41C U72A,0.15
12,A35C U66C U74C U80C,0.21
13,C32A U51C A56G,0.12
14,U31G C62U U78A,0.09
15,G33U A45G A56U U66C U80G,0.11
16,G33U A57G A64U,0.07
17,C34G U51C U72C U80C,0.09
18,U31C U60C U80C,0.38
19,C32A U41C U51A G63A U74C,0.12
20,G33U C40A G52C,0.1
21,C32U U43C A64U,0.19

row,Variant,self-cleavage
1,U31G U43C U48A C50U U78A,0.06
2,G33A A56U A57G,0.18
3,G33A A45U U66G,0.14
4,U31C U43C U54A,0.66
5,C34U U43A A56G A64G,0.26
6,C32A A56G U66C,0.15
7,U31C U60C U74C,0.72
8,G33A G36A U43C U51A U66C U69C U76C,0.12
9,G33C A35G A45G U54A U60C U66C,0.18
10,C34G U41C U49C U54C C62G A64U U78C,0.05
11,C34U U48C U60C U69C U76C,0.09
12,C34A A57G U66C,0.13
13,C32A U48C U51C,0.28
14,C34U U41C A45G A56U,0.13
15,G33C G36C A47C U48A U69A U72A,0.05
16,G33A A35G A47U,0.18
17,U31G A65G U78C,0.13
18,U31G C32G U54C U66C,0.14
19,C32G C37G U67C,0.16
20,U31C U49G U74C,0.47
21,C32U G42A U54C U60A U69C,0.18

row,Variant,self-cleavage
1,C32U U78C U80C,0.31
2,U31C U74A U78C,1.23
3,C34U C38U A45G U54C U69C,0.14
4,U31C U43C U60C,0.2
5,C32A C38A U54A U60C U69C U78C,0.05
6,C32G U48A U54A U72A,0.12
7,C32U A45U A57G,0.15
8,A35G A45C U48C U58C,0.12
9,C34U A45C U67A,0.22
10,U31G U66C U76C,0.2
11,G33U U51C C68A U72C,0.06
12,C32A U54C U72A,0.28
13,C34U U41A U49C G53A A64G U66C U67A,0.02
14,G33A A47G U72C,0.15
15,C32A A56G A57G,0.17
16,U31G U48C U60C,0.13
17,U31C U60A A64G U74C,0.33
18,G33A A47G A64G,0.16
19,A35C G73C U76A,1.23
20,U31G U49C G53A U76C,0.32
21,C32U G33U U48C,0.41

row,Variant,self-cleavage
1,U31G U60C U66C U72C,0.33
2,U31C U54A A65G A77U,0.47
3,U31C U51A G53U C71A U76C U78C,0.31
4,A35C A45C U48C U76C,0.19
5,G33C A56G U66C U80C,0.13
6,G33A A35G U60A C71G A75G,0.08
7,U31C U49G U78A,0.29
8,U31G A45C A56G A64G,0.23
9,C32A U41C U43C,0.07
10,G33A U69C U78C C79U,0.11
11,U31C U48C A64G U74C,0.54
12,C34U U49C A56U A64G,0.11
13,G33A U41C A77U U78C,0.06
14,C32A A57G A75U,0.12
15,A35C U54C U78C,0.73
16,A35C A45G G61C,0.19
17,U31G A64U A75G,0.16
18,U31C U49C U72A,0.12
19,U31C U54C U67A,0.22
20,G33C U51C U54C,0.13
21,C34A A45U A64U U67C U72C,0.2

# — the RNAGym collection of RNA variant scans (doi:10.1093/nar/gkz1192)
